Measured values as given in PubChem BioAssay AID504332 (National Center for Advancing Translational Sciences (NCATS), 2011).
Screen size: about 350,000 compounds; about 31,000 (8.9%) were called active. The shares of active, inactive and inconclusive entries below differ from those in the screen. Calls follow the shape of the dose curve; as a rule, active = well fitted inhibition curve with a large enough effect; inconclusive = small, poorly fitted or top-dose-only effect; inactive = no such curve, though single readings can be large or run the other way. Potencies of inconclusive entries are doubtful fits and often do not repeat.

target: Histone-lysine N-methyltransferase EHMT2 (Homo sapiens) (UniProt Q96KQ7); assay: qHTS Assay for Inhibitors of Histone Lysine Methyltransferase G9a; conditions: G9a H3K9 monomethylation, AlphaScreen, 2 h; activity, negative = inhibition: at 59 µM (top of the series) unless noted; also: nearly all actives have a fitted effect of over 75% in size
How it was run: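 Readings reflect AlphaScreen signal from monomethyl-H3K9 antibody detection. HMT at 20 nM; substrate b-H3K9 500 nM; cofactor SAM 20 uM; 2 h RT reaction; compounds tested as titrations in qHTS with 15 min preincubation.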
% is scaled to controls: 0 for no effect and ±100 for the full control effect; potency is read from the fitted curve at half-maximal effect; tags tell the direction and shape of the fitted curve.

UniProt Q96KQ7, sequence (Q96KQ7 whole entry, looked up): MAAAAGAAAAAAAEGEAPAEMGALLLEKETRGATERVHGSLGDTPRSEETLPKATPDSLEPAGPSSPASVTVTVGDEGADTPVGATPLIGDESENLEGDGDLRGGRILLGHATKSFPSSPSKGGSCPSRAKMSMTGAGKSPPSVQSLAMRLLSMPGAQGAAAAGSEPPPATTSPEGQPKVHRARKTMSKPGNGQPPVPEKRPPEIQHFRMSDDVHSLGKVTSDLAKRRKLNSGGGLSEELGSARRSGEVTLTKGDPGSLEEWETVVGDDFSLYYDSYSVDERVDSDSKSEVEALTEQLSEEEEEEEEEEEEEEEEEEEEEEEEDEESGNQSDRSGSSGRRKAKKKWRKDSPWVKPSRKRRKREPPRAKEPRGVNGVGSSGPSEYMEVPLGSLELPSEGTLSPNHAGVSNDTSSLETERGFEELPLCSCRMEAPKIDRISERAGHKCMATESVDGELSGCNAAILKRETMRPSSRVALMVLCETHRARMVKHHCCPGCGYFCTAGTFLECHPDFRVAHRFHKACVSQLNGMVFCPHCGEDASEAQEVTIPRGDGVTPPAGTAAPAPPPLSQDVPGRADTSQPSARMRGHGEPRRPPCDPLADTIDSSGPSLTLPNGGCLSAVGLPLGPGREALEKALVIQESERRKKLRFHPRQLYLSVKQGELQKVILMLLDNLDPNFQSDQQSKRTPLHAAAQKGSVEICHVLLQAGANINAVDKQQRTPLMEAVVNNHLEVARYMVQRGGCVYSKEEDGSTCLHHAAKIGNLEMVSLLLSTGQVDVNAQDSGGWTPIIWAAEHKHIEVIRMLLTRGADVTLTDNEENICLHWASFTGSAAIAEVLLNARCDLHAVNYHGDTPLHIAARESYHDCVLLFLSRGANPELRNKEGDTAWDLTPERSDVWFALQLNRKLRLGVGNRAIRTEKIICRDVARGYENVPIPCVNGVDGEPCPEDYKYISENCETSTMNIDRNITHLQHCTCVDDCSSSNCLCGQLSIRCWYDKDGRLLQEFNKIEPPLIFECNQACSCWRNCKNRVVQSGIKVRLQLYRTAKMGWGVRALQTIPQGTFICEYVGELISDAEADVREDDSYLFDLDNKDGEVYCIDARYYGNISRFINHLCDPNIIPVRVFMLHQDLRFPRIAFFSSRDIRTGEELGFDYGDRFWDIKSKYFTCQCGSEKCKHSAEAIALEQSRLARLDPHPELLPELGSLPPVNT

SMILES	Potency	activity, negative = inhibition
Oc1ccc(-c2csc(-c3ccccc3)n2)cc1O	inconclusive: 10 µM [inhibitor, partial curve, poor fit]	–
CCCCn1c(N)c(N(CCOC)C(=O)c2cccc(S(=O)(=O)N(C)c3ccccc3)c2)c(=O)[nH]c1=O	inconclusive: 56.2 µM [inhibitor, partial curve, poor fit]	–
Cn1c(C(=O)N2CCC(C(=O)N3CCN(Cc4ccc5c(c4)OCO5)CC3)CC2)cc2sccc21	inconclusive: 0.794 µM [inhibitor, full curve, poor fit]	–
COc1cc(-c2nc3ccccn3c2/N=C/c2cc(OC)c(O)cc2Cl)ccc1O	active: 22.4 µM	–
CCOc1ccc(/C=C/c2nc(C#N)c(N(C)C)o2)cc1	inactive	–
Cc1cc(Cl)c(OCCCNC2CCCC2)c(Br)c1	active: 10 µM	–
COc1cccc(CN2CCNC(=O)C2CC(=O)NC2CCCC2)c1OC (stereo unspecified)	active: 39.8 µM	–
CN(Cc1ccccc1)c1oc(-c2ccco2)nc1C#N	–	inconclusive: -91.8% [inhibitor]
Cc1sc(-c2cc3ccccc3oc2=O)nc1-c1ccc(Cl)cc1	inactive	–
CCOc1cccc(-c2nnc3sc(C4CCCCC4)nn23)c1	active: 35.5 µM	–
Cc1ccc(C2(c3noc(CN(C)Cc4cnn(C)c4)n3)CCCC2)cc1	inconclusive: 50.1 µM [inhibitor, partial curve, poor fit]	–
COc1ccc(CN(CCC(c2ccc(F)cc2)C2CCOC(C)(C)C2)C(=O)c2ccco2)cc1 (stereo unspecified)	inconclusive: 17.8 µM [inhibitor, partial curve, poor fit]	–
Cc1ccc([N+](=O)[O-])cc1S(=O)(=O)Nc1cccc(-c2ccc(N3CCOCC3)nn2)c1	inconclusive: 50.1 µM [inhibitor, partial curve]	–
O=C(CCc1ccccc1Cl)Nc1cccc(S(=O)(=O)N2CCCC2)c1	inconclusive: 56.2 µM [inhibitor, partial curve, poor fit]	–
C=CCn1c(SCC(=O)NCCOC)nc2scc(-c3ccco3)c2c1=O	active: 44.7 µM	–
COc1cc(O)c(C(CCN2CCCC(C)C2)c2cc(OC)c(OC)c(OC)c2)c(OC)c1 (stereo unspecified)	–	inactive: 10.9% [at 12.7 µM]
CCN1CCN(Cc2nc3ccc([N+](=O)[O-])cc3c(=O)n2-c2ccc(OC)cc2OC)CC1	inactive	–
Cc1ccc(-c2nc3ccccc3s2)cc1NC(=O)c1cc(-n2cnnc2)ccc1Cl	inconclusive: 3.98 µM [inhibitor, single point]	–
Cc1ccccc1-c1nc(CS(=O)CC(=O)NCCc2ccc(Cl)cc2)c(C)o1 (stereo unspecified)	inactive	–
COc1ccc(CN2CCNC(=O)C2CC(=O)NCc2cnn(C)c2)cc1OC (stereo unspecified)	active: 50.1 µM	–
CCOc1ccc(C(=O)C(C)=O)c(OCC)c1	inconclusive: 0.141 µM [inhibitor, full curve, poor fit]	–
O=C1CC(c2ccccc2)Cc2[nH]c(=O)c(-c3nc(-c4ccc(F)cc4)cs3)cc21 (stereo unspecified)	active: 0.631 µM	–
C=CCN(CC=C)CCOc1ccccc1F	active: 7.08 µM	–

SMILES	Potency	activity, negative = inhibition
CN(CC(=O)Nc1ccc2c(c1)OCCO2)Cc1nc2ccccc2c(=O)[nH]1	inconclusive: 0.316 µM [inhibitor, full curve, poor fit]	–
CC1(c2ccc([N+](=O)[O-])c(CS(=O)(=O)c3ccccc3)c2)OCCO1	inactive	–
Cc1cc([N+](=O)[O-])nn1CC(=O)NCc1nc2ccccc2[nH]1	inactive	–
CCc1nc(C)cn1S(=O)(=O)c1cc(C)c(OC)cc1C	active: 50.1 µM	–
COc1ccc2c(c1OC)C(=O)OC2Nc1nc(-c2cc3cc([N+](=O)[O-])ccc3oc2=O)cs1 (stereo unspecified)	inactive	–
O=C1c2ccccc2C(=O)C12OC2c1cccc2ccccc12 (stereo unspecified)	active: 6.31 µM	–
Cc1ccc(-c2nnc(SCC(=O)NCCC(C)C)nc2-c2ccc(C)cc2)cc1	inconclusive: 7.94 µM [inhibitor, partial curve, poor fit]	–
CCc1ccc(Nc2nnc(SC3CCOC3=O)s2)cc1 (stereo unspecified)	inconclusive: 39.8 µM [inhibitor, single point]	–
Cc1cccc(Cc2c(C)nc3c(C(=O)NCc4ccco4)cnn3c2C)c1	–	inconclusive: -64.9% [inhibitor] [at 102 µM]
COc1ccc(OC)c(/C=C/C(=O)Nc2ccc(OC)nc2)c1	inconclusive: 7.08 µM [inhibitor, partial curve, poor fit]	–
CS(=O)(=O)N(Cc1ccccc1)c1ccc(C(=O)NCCSCc2ccco2)cc1	inactive	–
COc1cccc(C2=NS(=O)(=O)N(C)C(C(=O)Nc3cccc(O)c3)=C2)c1	active: 14.1 µM	–
CCOC(=O)C1CCCCN1S(=O)(=O)c1ccc2c(c1)CC(C)N2C(=O)C1CCC1 (stereo unspecified)	inactive	–
Cc1cc(OCC(=O)NCC2(N(C)C)CCCCC2)cc(C)c1Cl	inactive	–
NC(=O)CSc1nc(C2CC2)nc2sc3c(c12)CCCC3	inactive	–
Cc1cccc(NC(=O)/C(C#N)=C\c2ccc(C(=O)O)cc2)c1	inactive	–
CCN1CCN(C(c2cccc(Cl)c2)c2c(O)cc(C)n(CCOC)c2=O)CC1 (stereo unspecified)	inconclusive: 39.8 µM [inhibitor, single point]	–
CCCCN1C(=O)C(O)(c2c(C)[nH]c3ccccc23)c2cc(Br)ccc21 (stereo unspecified)	inconclusive: 3.98 µM [inhibitor, partial curve, poor fit]	–
Cc1cc2nn(-c3ccc(F)cc3)nc2cc1NC(=O)c1cc(Cl)ccc1Cl	inconclusive: 3.55 µM [inhibitor, full curve, poor fit]	–
Cc1nc2c(C)cccn2c1/C(O)=C1\C(=O)C(=O)N(CCN(C)C)C1c1ccncc1 (stereo unspecified)	–	inconclusive: -62.3% [inhibitor]
Cc1nc2c(C(=O)NCc3ccco3)cnn2c(C)c1Cc1ccc(F)cc1Cl	inconclusive: 50.1 µM [inhibitor, partial curve, poor fit]	–
O=C1CC(NCc2ccc3c(c2)OCO3)C(=O)N1Cc1ccc2c(c1)OCO2 (stereo unspecified)	inconclusive: 50.1 µM [inhibitor, partial curve, poor fit]	–
CCN(CC)c1nc2ccccc2nc1C(C#N)C(=O)NCCCOC (stereo unspecified)	inconclusive: 3.55 µM [inhibitor, partial curve, poor fit]	–
